Experimental data: the supplement of paper PMC9151546
Repeats are few or missing, and single values can be far off.

Assays:
CHO-K1 [1] = test: micronucleus frequency (% of nucleated events); higher = more micronuclei (genotoxic)
CHO-K1 [2] = test: hypodiploid nuclei frequency (% of nucleated events); higher = more hypodiploid events (aneugenic)
CHO-K1 [3] = test: relative survival (nuclei to bead ratio vs DMSO control) (% of vehicle control); higher = more surviving cells
Description: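 Flow-cytometric in vitro micronucleus assay (Litron MicroFlow) in CHO-K1 cells in 96-well plates, 19 concentrations (4.5-200 µM, n=1 per concentration). Without S9, cells were exposed for 24 h and sampled at 48 h. With Aroclor 1254-induced rat liver S9, cells were exposed for 3-4 h and sampled at 27-28 h. Read-outs are %MN and %hypodiploid nuclei relative to nucleated events, and relative survival as the nuclei-to-bead ratio versus the 1% DMSO vehicle control (x100).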
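Wherever hypodiploid nuclei frequency (% of nucleated events) is given: hypodiploid nuclei gated on a flow cytometer with 488 nm excitation after SYTOX Green staining, cultures at 37 °C, positive controls vinblastine without S9 and cyclophosphamide with S9.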
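Wherever micronucleus frequency (% of nucleated events) is given: cells lysed with nuclei stained by SYTOX Green, then micronucleus-gated events counted against nucleated events by flow cytometry with 488 nm excitation.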
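Wherever relative survival (nuclei to bead ratio vs DMSO control) is given: Lysed-cell nuclei stained with SYTOX Green and counted against counting beads by flow cytometry at 488 nm excitation, with vinblastine (no S9) and cyclophosphamide (plus S9) as positive controls.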

Nc1cc(Cl)cc(C(=O)O)c1Cl [Chloramben]
Conditions	hypodiploid nuclei frequency, CHO-K1 [2] [%]	micronucleus frequency, CHO-K1 [1] [%]	relative survival, CHO-K1 [3]
concentration: 4.5 (µM), S9 metabolic activation: with S9, exposure time: 3-4 hours	0.34	1.94	81.7
concentration: 4.5 (µM), S9 metabolic activation: without S9, exposure time: 24 hours	0.9	1.64	102
concentration: 5.63 (µM), S9 metabolic activation: with S9, exposure time: 3-4 hours	0.48	1.24	88.3
concentration: 5.63 (µM), S9 metabolic activation: without S9, exposure time: 24 hours	0.96	1.6	108
concentration: 7.04 (µM), S9 metabolic activation: with S9, exposure time: 3-4 hours	0.6	1.72	88.5
concentration: 7.04 (µM), S9 metabolic activation: without S9, exposure time: 24 hours	0.88	1.42	100
concentration: 8.8 (µM), S9 metabolic activation: with S9, exposure time: 3-4 hours	0.52	1.7	106
concentration: 8.8 (µM), S9 metabolic activation: without S9, exposure time: 24 hours	1.28	1.66	108
concentration: 11 (µM), S9 metabolic activation: with S9, exposure time: 3-4 hours	0.58	1.72	89.5
concentration: 11 (µM), S9 metabolic activation: without S9, exposure time: 24 hours	1.04	1.56	120
concentration: 13.7 (µM), S9 metabolic activation: with S9, exposure time: 3-4 hours	0.64	1.9	90.6
concentration: 13.7 (µM), S9 metabolic activation: without S9, exposure time: 24 hours	1	1.12	120
concentration: 17.2 (µM), S9 metabolic activation: with S9, exposure time: 3-4 hours	1.04	1.44	96.4
concentration: 17.2 (µM), S9 metabolic activation: without S9, exposure time: 24 hours	1.3	1.3	158
concentration: 21.5 (µM), S9 metabolic activation: with S9, exposure time: 3-4 hours	1.18	1.9	97.6
concentration: 21.5 (µM), S9 metabolic activation: without S9, exposure time: 24 hours	0.96	1.18	115
concentration: 26.8 (µM), S9 metabolic activation: with S9, exposure time: 3-4 hours	0.48	2.28	71.4
concentration: 26.8 (µM), S9 metabolic activation: without S9, exposure time: 24 hours	1.04	2.1	85.6
concentration: 33.6 (µM), S9 metabolic activation: with S9, exposure time: 3-4 hours	0.76	1.84	89.8
concentration: 33.6 (µM), S9 metabolic activation: without S9, exposure time: 24 hours	0.8	1.6	103
concentration: 41.9 (µM), S9 metabolic activation: with S9, exposure time: 3-4 hours	0.66	1.32	87.3
concentration: 41.9 (µM), S9 metabolic activation: without S9, exposure time: 24 hours	1	2.06	98.5
concentration: 52.4 (µM), S9 metabolic activation: with S9, exposure time: 3-4 hours	1.52	1.44	98.2
concentration: 52.4 (µM), S9 metabolic activation: without S9, exposure time: 24 hours	1.16	1.72	89.4
concentration: 65.5 (µM), S9 metabolic activation: with S9, exposure time: 3-4 hours	2.12	1.56	95.5
concentration: 65.5 (µM), S9 metabolic activation: without S9, exposure time: 24 hours	1.08	1.84	87.4
concentration: 81.9 (µM), S9 metabolic activation: with S9, exposure time: 3-4 hours	0.62	1.58	71.9
concentration: 81.9 (µM), S9 metabolic activation: without S9, exposure time: 24 hours	1.26	1.62	100
concentration: 102 (µM), S9 metabolic activation: with S9, exposure time: 3-4 hours	0.9	1.84	88.3
concentration: 102 (µM), S9 metabolic activation: without S9, exposure time: 24 hours	1.54	2.26	104
concentration: 128 (µM), S9 metabolic activation: with S9, exposure time: 3-4 hours	1.62	2.06	88.3
concentration: 128 (µM), S9 metabolic activation: without S9, exposure time: 24 hours	1.82	1.96	118
concentration: 160 (µM), S9 metabolic activation: with S9, exposure time: 3-4 hours	0.68	2.06	85.9
concentration: 160 (µM), S9 metabolic activation: without S9, exposure time: 24 hours	1.9	1.36	145
concentration: 200 (µM), S9 metabolic activation: with S9, exposure time: 3-4 hours	0.48	2.02	88.5
concentration: 200 (µM), S9 metabolic activation: without S9, exposure time: 24 hours	2.36	3.04	98.5

OCC1CO1 (stereo unspecified) [Glycidol]
Conditions	hypodiploid nuclei frequency, CHO-K1 [2] [%]	micronucleus frequency, CHO-K1 [1] [%]	relative survival, CHO-K1 [3]
concentration: 4.5 (µM), S9 metabolic activation: with S9, exposure time: 3-4 hours	0.24	1.04	87.4
concentration: 4.5 (µM), S9 metabolic activation: without S9, exposure time: 24 hours	0.68	0.96	103
concentration: 5.63 (µM), S9 metabolic activation: with S9, exposure time: 3-4 hours	0.08	0.86	131
concentration: 5.63 (µM), S9 metabolic activation: without S9, exposure time: 24 hours	0.78	1.34	102
concentration: 7.04 (µM), S9 metabolic activation: with S9, exposure time: 3-4 hours	0.12	0.78	113
concentration: 7.04 (µM), S9 metabolic activation: without S9, exposure time: 24 hours	0.96	1.7	93.9
concentration: 8.8 (µM), S9 metabolic activation: with S9, exposure time: 3-4 hours	0.28	1.66	115
concentration: 8.8 (µM), S9 metabolic activation: without S9, exposure time: 24 hours	0.8	1.28	109
concentration: 11 (µM), S9 metabolic activation: with S9, exposure time: 3-4 hours	0.26	1.7	112
concentration: 11 (µM), S9 metabolic activation: without S9, exposure time: 24 hours	0.98	1.42	104
concentration: 13.7 (µM), S9 metabolic activation: with S9, exposure time: 3-4 hours	0.24	1.78	105
concentration: 13.7 (µM), S9 metabolic activation: without S9, exposure time: 24 hours	0.94	1.3	102
concentration: 17.2 (µM), S9 metabolic activation: with S9, exposure time: 3-4 hours	0.3	1.76	120
concentration: 17.2 (µM), S9 metabolic activation: without S9, exposure time: 24 hours	0.72	1.3	91.4
concentration: 21.5 (µM), S9 metabolic activation: with S9, exposure time: 3-4 hours	0.2	1	97.2
concentration: 21.5 (µM), S9 metabolic activation: without S9, exposure time: 24 hours	0.56	1.52	101
concentration: 26.8 (µM), S9 metabolic activation: with S9, exposure time: 3-4 hours	0.28	0.8	117
concentration: 26.8 (µM), S9 metabolic activation: without S9, exposure time: 24 hours	1.62	2.2	121
concentration: 33.6 (µM), S9 metabolic activation: with S9, exposure time: 3-4 hours	0.26	0.96	94.5
concentration: 33.6 (µM), S9 metabolic activation: without S9, exposure time: 24 hours	2.02	1.62	104
concentration: 41.9 (µM), S9 metabolic activation: with S9, exposure time: 3-4 hours	0.28	0.68	95.8
concentration: 41.9 (µM), S9 metabolic activation: without S9, exposure time: 24 hours	1.3	1.36	100
concentration: 52.4 (µM), S9 metabolic activation: with S9, exposure time: 3-4 hours	0.4	1.12	92.2
concentration: 52.4 (µM), S9 metabolic activation: without S9, exposure time: 24 hours	1.36	1.32	111
concentration: 65.5 (µM), S9 metabolic activation: with S9, exposure time: 3-4 hours	0.32	1.18	100
concentration: 65.5 (µM), S9 metabolic activation: without S9, exposure time: 24 hours	0.98	1.6	118
concentration: 81.9 (µM), S9 metabolic activation: with S9, exposure time: 3-4 hours	0.14	1.02	109
concentration: 81.9 (µM), S9 metabolic activation: without S9, exposure time: 24 hours	1.2	2	104
concentration: 102 (µM), S9 metabolic activation: with S9, exposure time: 3-4 hours	0.24	1.44	100
concentration: 102 (µM), S9 metabolic activation: without S9, exposure time: 24 hours	1.14	1.66	96.3
concentration: 128 (µM), S9 metabolic activation: with S9, exposure time: 3-4 hours	0.26	1	112
concentration: 128 (µM), S9 metabolic activation: without S9, exposure time: 24 hours	0.96	1.54	96.3
concentration: 160 (µM), S9 metabolic activation: with S9, exposure time: 3-4 hours	0.2	1.58	107
concentration: 160 (µM), S9 metabolic activation: without S9, exposure time: 24 hours	1.3	2.3	132
concentration: 200 (µM), S9 metabolic activation: with S9, exposure time: 3-4 hours	0.26	1.02	105
concentration: 200 (µM), S9 metabolic activation: without S9, exposure time: 24 hours	1.06	1.96	121
